# According to the supplement of paper PMC8728848:
# The other results are listed elsewhere or left out.
# Assays:
# Test in all cases: glycan array binding signal (z-score within array); higher = stronger binding
# Conditions in all cases: glycan notation: IUPAC condensed, linker removed
# [1] = target: GlcNAc(b1-3)Gal(b1-4)GlcNAc(b1-3)Gal(b1-4)GlcNAc(b1-2)Man(a1-3)[GlcNAc(b1-3)Gal(b1-4)GlcNAc(b1-3)Gal(b1-4)GlcNAc(b1-2)Man(a1-6)]Man(b1-4)GlcNAc(b1-4)GlcNAc
# How it was run: (§1)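 Columns mapping to the same glycan were averaged after glycan names were converted to IUPAC-condensed notation. The data come from 3228 arrays in the Consortium for Functional Glycomics database, limited to those with an available protein sequence. Binding is reported as a within-array Z-score averaged across arrays of one protein sequence and across linkers.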
# [2] = target: GlcNAc(b1-3)Gal(b1-4)GlcNAc(b1-3)Gal(b1-4)GlcNAc(b1-2)Man(a1-3)[GlcNAc(b1-3)Gal(b1-4)GlcNAc(b1-3)Gal(b1-4)GlcNAc(b1-2)Man(a1-6)]Man(b1-4)GlcNAc(b1-4)[Fuc(a1-6)]GlcNAc
# How it was run: as §1
# [3] = target: GlcNAc(b1-3)Gal(b1-4)GlcNAc(b1-3)Gal(b1-4)GlcNAc(b1-2)[GlcNAc(b1-3)Gal(b1-4)GlcNAc(b1-3)Gal(b1-4)GlcNAc(b1-6)]Man(a1-6)[GlcNAc(b1-3)Gal(b1-4)GlcNAc(b1-3)Gal(b1-4)GlcNAc(b1-2)Man(a1-3)]Man(b1-4)GlcNAc(b1-4)[Fuc(a1-6)]GlcNAc
# How it was run: as §1
# [4] = target: GlcNAc(b1-3)Gal(b1-4)GlcNAc(b1-3)Gal(b1-4)GlcNAc(b1-3)Gal(b1-4)GlcNAc(b1-2)Man(a1-3)[GlcNAc(b1-3)Gal(b1-4)GlcNAc(b1-3)Gal(b1-4)GlcNAc(b1-3)Gal(b1-4)GlcNAc(b1-2)Man(a1-6)]Man(b1-4)GlcNAc(b1-4)GlcNAc
# How it was run: as §1
# [5] = target: GlcNAc(b1-3)Gal(b1-4)GlcNAc(b1-3)Gal(b1-4)GlcNAc(b1-3)Gal(b1-4)GlcNAc(b1-2)Man(a1-3)[GlcNAc(b1-3)Gal(b1-4)GlcNAc(b1-3)Gal(b1-4)GlcNAc(b1-3)Gal(b1-4)GlcNAc(b1-2)Man(a1-6)]Man(b1-4)GlcNAc(b1-4)[Fuc(a1-6)]GlcNAc
# How it was run: as §1
# [6] = target: GlcNAc(b1-3)Gal(b1-4)GlcNAc(b1-3)Gal(b1-4)GlcNAc(b1-3)Gal(b1-4)GlcNAc(b1-2)[GlcNAc(b1-3)Gal(b1-4)GlcNAc(b1-3)Gal(b1-4)GlcNAc(b1-3)Gal(b1-4)GlcNAc(b1-6)]Man(a1-6)[GlcNAc(b1-3)Gal(b1-4)GlcNAc(b1-3)Gal(b1-4)GlcNAc(b1-3)Gal(b1-4)GlcNAc(b1-2)Man(a1-3)]Man(b1-4)GlcNAc(b1-4)[Fuc(a1-6)]GlcNAc
# How it was run: as §1
# [7] = target: GlcNAc(b1-3)Gal(b1-4)GlcNAc(b1-3)Gal(b1-4)GlcNAc(b1-3)Gal(b1-4)GlcNAc(b1-3)Gal(b1-4)GlcNAc(b1-2)Man(a1-3)[GlcNAc(b1-3)Gal(b1-4)GlcNAc(b1-3)Gal(b1-4)GlcNAc(b1-3)Gal(b1-4)GlcNAc(b1-3)Gal(b1-4)GlcNAc(b1-2)Man(a1-6)]Man(b1-4)GlcNAc(b1-4)GlcNAc
# How it was run: as §1
# [8] = target: GlcNAc(b1-3)Gal(b1-4)GlcNAc(b1-3)Gal(b1-4)GlcNAc(b1-3)Gal(b1-4)GlcNAc(b1-3)Gal(b1-4)GlcNAc(b1-2)Man(a1-3)[GlcNAc(b1-3)Gal(b1-4)GlcNAc(b1-3)Gal(b1-4)GlcNAc(b1-3)Gal(b1-4)GlcNAc(b1-3)Gal(b1-4)GlcNAc(b1-2)Man(a1-6)]Man(b1-4)GlcNAc(b1-4)[Fuc(a1-6)]GlcNAc
# How it was run: as §1
# [9] = target: GlcNAc(b1-3)Gal(b1-4)GlcNAc(b1-3)Gal(b1-4)GlcNAc(b1-3)Gal(b1-4)GlcNAc(b1-3)Gal(b1-4)GlcNAc(b1-2)[GlcNAc(b1-3)Gal(b1-4)GlcNAc(b1-3)Gal(b1-4)GlcNAc(b1-3)Gal(b1-4)GlcNAc(b1-3)Gal(b1-4)GlcNAc(b1-6)]Man(a1-6)[GlcNAc(b1-3)Gal(b1-4)GlcNAc(b1-3)Gal(b1-4)GlcNAc(b1-3)Gal(b1-4)GlcNAc(b1-3)Gal(b1-4)GlcNAc(b1-2)Man(a1-3)]Man(b1-4)GlcNAc(b1-4)[Fuc(a1-6)]GlcNAc
# How it was run: as §1
# [10] = target: GlcNAc(b1-3)Gal(b1-4)GlcNAc(b1-3)Gal(b1-4)GlcNAc(b1-3)GalNAc
# How it was run: as §1
# [11] = target: GlcNAc(b1-3)Gal(b1-4)GlcNAc(b1-3)GalNAc
# How it was run: as §1
# [12] = target: GlcNAc(b1-3)Gal(b1-4)GlcNAc(b1-3)[GlcNAc(b1-3)Gal(b1-4)GlcNAc(b1-3)]GalNAc
# How it was run: as §1
# [13] = target: GlcNAc(b1-3)Gal(b1-4)GlcNAc(b1-6)[Gal(b1-3)]GalNAc
# How it was run: as §1
# [14] = target: GlcNAc(b1-3)Gal(b1-4)GlcNAc(b1-6)[GlcNAc(b1-3)Gal(b1-3)]GalNAc
# How it was run: as §1
# [15] = target: GlcNAc(b1-3)Gal(b1-4)GlcNAc(b1-6)[GlcNAc(b1-3)]Gal(b1-4)GlcNAc
# How it was run: as §1
# [16] = target: GlcNAc(b1-3)GalNAc
# How it was run: as §1
# [17] = target: GlcNAc(b1-3)Man
# How it was run: as §1
# [18] = target: GlcNAc(b1-3)[GlcNAc(b1-4)][GlcNAc(b1-6)]GlcNAc
# How it was run: as §1
# [19] = target: GlcNAc(b1-3)[GlcNAc(b1-6)]Gal(b1-4)GlcNAc
# How it was run: as §1
# [20] = target: GlcNAc(b1-3)[GlcNAc(b1-6)]GalNAc
# How it was run: as §1
# [21] = target: GlcNAc(b1-4)Gal(b1-4)GlcNAc
# How it was run: as §1
# [22] = target: GlcNAc(b1-4)GlcNAc
# How it was run: as §1
# [23] = target: GlcNAc(b1-4)GlcNAc(b1-4)GlcNAc
# How it was run: as §1
# [24] = target: GlcNAc(b1-4)GlcNAc(b1-4)GlcNAc(b1-4)GlcNAc(b1-4)GlcNAc
# How it was run: as §1
# [25] = target: GlcNAc(b1-4)GlcNAc(b1-4)GlcNAc(b1-4)GlcNAc(b1-4)GlcNAc(b1-4)GlcNAc
# How it was run: as §1
# [26] = target: GlcNAc(b1-4)[GlcNAc(b1-6)]GalNAc
# How it was run: as §1
# [27] = target: GlcNAc(b1-6)Gal(b1-4)GlcNAc
# How it was run: as §1
# [28] = target: GlcNAc(b1-6)GalNAc
# How it was run: as §1
# [29] = target: GlcNAc6S(b1-3)Gal(b1-4)GlcNAc
# How it was run: as §1
# [30] = target: Kdn(a2-3)Gal(b1-3)GalNAc
# How it was run: as §1
# [31] = target: Kdn(a2-3)Gal(b1-3)GlcNAc
# How it was run: as §1
# [32] = target: Kdn(a2-3)Gal(b1-4)Glc
# How it was run: as §1
# [33] = target: Kdn(a2-3)Gal(b1-4)GlcNAc
# How it was run: as §1
# [34] = target: Kdn(a2-3)Gal(b1-4)[Fuc(a1-3)]GlcNAc
# How it was run: as §1
# [35] = target: Kdn(a2-6)Gal(b1-4)GlcNAc
# How it was run: as §1
# [36] = target: Man(a1-2)Man(a1-2)Man(a1-3)Man
# How it was run: as §1
# [37] = target: Man(a1-2)Man(a1-2)Man(a1-6)[Man(a1-3)]Man
# How it was run: as §1
# [38] = target: Man(a1-2)Man(a1-3)Man
# How it was run: as §1
binder,measurement,setting,value
"Siglec-9 (Homo sapiens), Q9Y336 (protein) MLLLLLPLLWGRERAEGQTSKLLTMQSSVTVQEGLCVHVPCSFSYPSHGWIYPGPVVHGYWFREGANTDQDAPVATNNPARAVWEETRDRFHLLGDPHTKNCTLSIRDARRSDAGRYFFRMEKGSIKWNYKHHRLSVNVTALTHRPNILIPGTLESGCPQNLTCSVPWACEQGTPPMISWIGTSVSPLDPSTTRSSVLTLIPQPQDHGTSLTCQVTFPGASVTTNKTVHLNVSYPPQNLTMTVFQGDGTVSTVLGNGSSLSLPEGQSLRLVCAVDAVDSNPPARLSLSWRGLTLCPSQPSNPGVLELPWVHLRDAAEFTCRAQNPLGSQQVYLNVSLQSKATSGVTQGVVGGAGATALVFLSFCVIFVVVRSCRKKSARPAAGVGDTGIEDANAVRGSASQGPLTEPWAEDSPPDQPPPASARSSVGEGELQYASLSFQMVKPWDSRGQEATDTEYSEIKIHR",glycan array binding signal (z-score),[1],0.062
same,glycan array binding signal (z-score),[2],0.062
same,glycan array binding signal (z-score),[3],0.145
same,glycan array binding signal (z-score),[4],0.046
same,glycan array binding signal (z-score),[5],0.165
same,glycan array binding signal (z-score),[6],0.036
same,glycan array binding signal (z-score),[7],-0.181
same,glycan array binding signal (z-score),[8],-0.048
same,glycan array binding signal (z-score),[9],0.152
same,glycan array binding signal (z-score),[10],-0.128
same,glycan array binding signal (z-score),[11],-0.044
same,glycan array binding signal (z-score),[12],-0.1
same,glycan array binding signal (z-score),[13],-0.144
same,glycan array binding signal (z-score),[14],-0.082
same,glycan array binding signal (z-score),[15],-0.344
same,glycan array binding signal (z-score),[16],-0.152
same,glycan array binding signal (z-score),[17],-0.211
same,glycan array binding signal (z-score),[18],-0.195
same,glycan array binding signal (z-score),[19],-0.322
same,glycan array binding signal (z-score),[20],-0.138
same,glycan array binding signal (z-score),[21],0.012
same,glycan array binding signal (z-score),[22],-0.238
same,glycan array binding signal (z-score),[23],-0.25
same,glycan array binding signal (z-score),[24],-0.137
same,glycan array binding signal (z-score),[25],-0.468
same,glycan array binding signal (z-score),[26],-0.132
same,glycan array binding signal (z-score),[27],-0.081
same,glycan array binding signal (z-score),[28],-0.252
same,glycan array binding signal (z-score),[29],-0.385
same,glycan array binding signal (z-score),[30],0.069
same,glycan array binding signal (z-score),[31],-0.163
same,glycan array binding signal (z-score),[32],-0.058
same,glycan array binding signal (z-score),[33],-0.136
same,glycan array binding signal (z-score),[34],-0.31
same,glycan array binding signal (z-score),[35],-0.147
same,glycan array binding signal (z-score),[36],-0.078
same,glycan array binding signal (z-score),[37],-0.263
same,glycan array binding signal (z-score),[38],-0.256
